Measurements: PubChem BioAssay (Tox21)
“And” between values parts separate entries of the source, which are not always exact repeats. Equal values may be shown once. This list was built around the results that the source calls inconclusive (neither active nor inactive); the mix of calls is not that of the screen. For part of these data: Potencies beside an inconclusive call are fits to weak or partial responses and may not hold up. Some compounds were tested as several samples or in several runs, with calls that do not always agree. The source made the active and inactive calls. Unless noted, the call rests on the fitted dose curve; in most records, active means well fitted curve in the direction sought with a large enough effect in the repeat runs; inconclusive means weak or mixed curves; inactive means no such curve, though single readings can be large; an effect the other way counts as inactive or inconclusive.

How the values were obtained:
[1] = target: Peroxisome proliferator-activated receptor gamma (Homo sapiens) (UniProt P37231); assay: qHTS assay to identify small molecule antagonists of the peroxisome proliferator-activated receptor gamma (PPARg) signaling pathway (AID 743191; calls by dose curve; further: nearly all actives have a fitted effect of over 30% in size; on ratio activity, negative = inhibition: on the % scale 0 is the no-effect control and ±100 the full control effect); conditions: HEK293H PPARg-UAS-bla, beta-lactamase ratio, antagonist, 17 h
Chain of UniProt P37231 (P37231 whole entry, looked up): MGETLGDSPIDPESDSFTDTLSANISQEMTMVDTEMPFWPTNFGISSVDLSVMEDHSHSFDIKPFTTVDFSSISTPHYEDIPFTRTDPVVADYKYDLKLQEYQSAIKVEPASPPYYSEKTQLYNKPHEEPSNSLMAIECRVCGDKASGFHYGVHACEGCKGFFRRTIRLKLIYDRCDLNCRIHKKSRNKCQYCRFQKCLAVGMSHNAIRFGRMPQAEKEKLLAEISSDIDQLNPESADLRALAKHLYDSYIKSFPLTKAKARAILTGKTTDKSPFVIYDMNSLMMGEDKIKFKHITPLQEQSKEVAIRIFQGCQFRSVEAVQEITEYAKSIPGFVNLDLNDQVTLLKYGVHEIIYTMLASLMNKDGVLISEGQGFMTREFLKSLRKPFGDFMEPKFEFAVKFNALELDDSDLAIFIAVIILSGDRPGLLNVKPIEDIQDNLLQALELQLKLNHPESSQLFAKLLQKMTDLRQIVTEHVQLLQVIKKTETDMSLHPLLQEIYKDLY
Method in brief: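 GeneBLAzer PPARg UAS-bla HEK293H cells, 5 h post-plating, exposed to compounds 17 h at 37C. LiveBLAzer B/G FRET substrate added for 1 h at room temperature; beta-lactamase reporter read by fluorescence intensity.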

[2] = qHTS assay to identify small molecule antagonists of the peroxisome proliferator-activated receptor gamma (PPARg) signaling pathway - cell viability counter screen (AID 743194); conditions: PPARg-bla HEK293H viability, CellTiter-Glo luminescence, 17 h, co-treated with 50 nM rosiglitazone; activity change, negative = cytotoxicity: at 62.6 µM (top of the series) unless noted; further: nearly all actives have a fitted effect of over 55% in size
Method in brief: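 Cytotoxicity counter screen in PPARg-bla HEK293H cells, same wells as reporter assay. Compounds plus 50 nM rosiglitazone (final) for 17 h at 37 C, then viability read by CellTiter-Glo luminescence.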

[3] = qHTS assay for small molecule agonists of the antioxidant response element (ARE) signaling pathway (AID 743202; active means well fitted activation curve with a large enough effect in the signal ratio in the repeat runs, not every such curve was filed as active; inconclusive means weak or mixed curves, or effect the other way; inactive means no such curve, though single readings can be large or run the other way; the % refers to the signal ratio; on activation: on the % scale 0 is the no-effect control and ±100 the full control effect); conditions: HepG2 ARE-bla reporter, beta-lactamase FRET, 16 h
Method in brief: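 HepG2 ARE-bla cells; 16 h treatment at 37 C; FRET-based beta-lactamase fluorescence read after 2 h substrate incubation at room temperature.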

[4] = qHTS assay for small molecule activators of the heat shock response signaling pathway (AID 743210; active means well fitted activation curve with a large enough effect in the signal ratio in the repeat runs, with a control signal flat, not every such curve was filed as active; inconclusive means weak or mixed curves; the % refers to the signal ratio); conditions: HeLa HSE-bla reporter, beta-lactamase ratio, 5 h; activation: at 62.6 µM (top of the series)
Method in brief: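 Following overnight attachment, HSE-bla HeLa cells received test compounds for 5 h at 37 C; beta-lactamase activity was then detected via FRET substrate fluorescence.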

[5] = target: Peroxisome proliferator-activated receptor delta (Homo sapiens) (UniProt Q03181); assay: qHTS assay to identify small molecule agonists of the peroxisome proliferator-activated receptor delta (PPARd) signaling pathway (AID 743212; calls by dose curve); conditions: HEK293H PPARd-UAS-bla, beta-lactamase FRET ratio, 17 h; activation: at 62.6 µM (top of the series) unless noted
Chain of UniProt Q03181 (Q03181 whole entry, looked up): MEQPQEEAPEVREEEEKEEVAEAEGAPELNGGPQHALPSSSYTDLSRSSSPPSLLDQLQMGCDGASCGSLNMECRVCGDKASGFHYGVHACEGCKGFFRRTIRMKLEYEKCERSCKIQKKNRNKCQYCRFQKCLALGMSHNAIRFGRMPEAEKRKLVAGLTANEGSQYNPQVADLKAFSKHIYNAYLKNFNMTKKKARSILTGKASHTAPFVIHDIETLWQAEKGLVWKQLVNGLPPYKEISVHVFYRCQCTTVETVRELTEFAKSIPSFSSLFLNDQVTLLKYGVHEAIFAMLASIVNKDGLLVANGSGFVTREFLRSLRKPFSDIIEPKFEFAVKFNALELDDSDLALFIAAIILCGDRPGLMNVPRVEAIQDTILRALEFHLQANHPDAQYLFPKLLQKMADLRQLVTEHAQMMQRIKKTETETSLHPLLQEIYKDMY
Method in brief: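 Tox21 library screened in GeneBLAzer PPARd UAS-bla HEK293H cells. After compound treatment at 37 C, a FRET-based beta-lactamase substrate was applied for 2 h and fluorescence recorded.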

[6] = qHTS assay to identify small molecule antagonists of the peroxisome proliferator-activated receptor delta (PPARd) signaling pathway - cell viability counter screen (AID 743213); conditions: PPARd-bla HEK293H viability, CellTiter-Glo luminescence, 17 h; viability change, negative = cytotoxic: at 62 µM (top of the series) unless noted; further: nearly all actives have a fitted effect of over 50% in size
Method in brief: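 Luminescence from CellTiter-Glo, added after the bla read and incubated 30 min at room temperature, gives viability of HEK293H PPARd-bla cells exposed to compounds for 17 h at 37 C with 300 nM L165041.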

[7] = target: Peroxisome proliferator-activated receptor delta (Homo sapiens) (UniProt Q03181); assay: qHTS assay to identify small molecule antagonists of the peroxisome proliferator-activated receptor delta (PPARd) signaling pathway (AID 743215; active means well fitted inhibition curve with a large enough effect in the signal ratio in the repeat runs, not every such curve was filed as active; inconclusive means weak or mixed curves, or effect the other way; inactive means no such curve, though single readings can be large or run the other way; the % refers to the signal ratio;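 further: cells stimulated with agonist L165041 at 300 nM final during compound exposure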); conditions: HEK293H PPARd-UAS-bla, beta-lactamase FRET ratio, antagonist, 17 h; ratio activity, negative = inhibition: at 62 µM (top of the series) unless noted
Method in brief: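 Cells: HEK293H with a UAS-driven beta-lactamase reporter responsive to PPARd. Compounds were co-added with L165041 (300 nM, final) and incubated 17 h at 37 C before a 2 h room-temperature FRET substrate step and fluorescence reading.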

[8] = qHTS assay to identify small molecule agonists of the farnesoid-X-receptor (FXR) signaling pathway - cell viability counter screen (AID 743218); conditions: FXR-bla HEK293T viability, CellTiter-Glo luminescence, 16 h; viability change, negative = cytotoxic: at 62.6 µM (top of the series) unless noted; further: nearly all actives have a fitted effect of over 45% in size
Method in brief: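 Cells were seeded, left 5 h at 37 C and 5% CO2, then dosed with compound in DMSO for 16 h. After the beta-lactamase FRET read, CellTiter-Glo was added and luminescence measured 30 min later.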

[9] = target: Vitamin D3 receptor (Homo sapiens) (UniProt P11473); assay: qHTS assay to identify small molecule agonists of the vitamin D receptor (VDR) signaling pathway (AID 743222; calls by dose curve); conditions: HEK293T VDR-UAS-bla, beta-lactamase FRET ratio, 16 h; activation: at 63.5 µM (top of the series) unless noted
Chain of UniProt P11473 (P11473 whole entry, looked up): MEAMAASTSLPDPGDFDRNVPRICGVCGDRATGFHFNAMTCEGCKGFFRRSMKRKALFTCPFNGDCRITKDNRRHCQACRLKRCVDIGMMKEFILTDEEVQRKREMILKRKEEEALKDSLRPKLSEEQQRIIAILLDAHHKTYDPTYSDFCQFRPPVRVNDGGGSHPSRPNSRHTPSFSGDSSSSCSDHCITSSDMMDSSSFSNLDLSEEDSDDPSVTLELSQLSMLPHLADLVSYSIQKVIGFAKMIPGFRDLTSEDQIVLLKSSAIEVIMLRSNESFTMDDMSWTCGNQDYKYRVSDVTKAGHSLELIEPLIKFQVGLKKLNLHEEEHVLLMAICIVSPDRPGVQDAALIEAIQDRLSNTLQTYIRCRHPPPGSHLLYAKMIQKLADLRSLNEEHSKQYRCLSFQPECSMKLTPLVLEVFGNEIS
Method in brief: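 Cells carrying a VDR-driven beta-lactamase reporter are seeded at 2,000 per well and rested 4 h. Compounds in DMSO are added for 16 h at 37C, and FRET substrate fluorescence is measured after 2 h at room temperature.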

[10] = target: Vitamin D3 receptor (Homo sapiens) (UniProt P11473); assay: qHTS assay to identify small molecule antagonists of the vitamin D receptor (VDR) signaling pathway (AID 743223; active means well fitted inhibition curve with a large enough effect in the signal ratio in the repeat runs, not every such curve was filed as active; inconclusive means weak or mixed curves, or effect the other way; inactive means no such curve, though single readings can be large or run the other way; the % refers to the signal ratio; on activity change, negative = inhibition: on the % scale 0 is the no-effect control and ±100 the full control effect); conditions: VDR-UAS-bla HEK293T, beta-lactamase FRET ratio, 16 h; activity change, negative = inhibition: at 61 µM (top of the series) unless noted
Method in brief: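 Cells carrying a VDR-driven beta-lactamase reporter (VDR-bla) were co-treated with compound and 3 nM final 1alpha,25-dihydroxyvitamin D3 for 16 h at 37C; reporter activity was measured as FRET substrate fluorescence after 2 h at room temperature.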

[11] = qHTS assay to identify small molecule agonists of the vitamin D receptor (VDR) signaling pathway - cell viability counter screen (AID 743224); conditions: VDR-bla HEK293T viability, CellTiter-Glo luminescence, 16 h; activity change, negative = cytotoxicity: at 62.6 µM (top of the series) unless noted; further: nearly all actives have a fitted effect of over 50% in size
Method in brief: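 Cells: VDR-bla, 2,000/well, settled 4 h. Treatment: compounds in DMSO, 16 h, 37C/5% CO2. Readout: CellTiter-Glo luminescence after 30 min RT.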

[12] = qHTS assay to identify small molecule antagonists of the vitamin D receptor (VDR) signaling pathway - cell viability counter screen (AID 743225); conditions: VDR-bla HEK293T viability, CellTiter-Glo luminescence, 16 h; viability change, negative = cytotoxic: at 61 µM (top of the series) unless noted; further: nearly all actives have a fitted effect of over 50% in size; on viability change, negative = cytotoxic: on the % scale 0 is the no-effect control and ±100 the full control effect
Method in brief: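 HEK293T VDR-bla; cpd + 1a,25-(OH)2D3 3 nM final, 16 h 37C/5% CO2; B/G FRET substrate 2 h RT; then CellTiter-Glo 30 min RT, luminescence.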

[13] = qHTS assay for small molecule agonists of the antioxidant response element (ARE) signaling pathway - cell viability counter screen (AID 743203; calls by dose curve; further: nearly all actives have a fitted effect of over 55% in size); conditions: ARE-bla HepG2 viability, CellTiter-Glo luminescence, 16 h; viability change, negative = cytotoxic: at 73.3 µM (top of the series)
Method in brief: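 Cytotoxicity was tested in parallel with the ARE reporter screen. ARE-bla HepG2 cells were exposed to compounds for 16 hrs, and viability was taken from CellTiter-Glo luminescence.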

[14] = target: Bile acid receptor (Homo sapiens) (UniProt Q96RI1); assay: qHTS assay to identify small molecule antagonists of the farnesoid-X-receptor (FXR) signaling pathway (AID 743217; active means well fitted inhibition curve with a large enough effect in the signal ratio in the repeat runs, not every such curve was filed as active; inconclusive means weak or mixed curves, or effect the other way; inactive means no such curve, though single readings can be large or run the other way; the % refers to the signal ratio); conditions: HEK293T FXR-UAS-bla, beta-lactamase ratio, CDCA-stimulated, 16 h; activity change, negative = inhibition: at 62.6 µM (top of the series) unless noted
Chain of UniProt Q96RI1 (Q96RI1 whole entry, looked up): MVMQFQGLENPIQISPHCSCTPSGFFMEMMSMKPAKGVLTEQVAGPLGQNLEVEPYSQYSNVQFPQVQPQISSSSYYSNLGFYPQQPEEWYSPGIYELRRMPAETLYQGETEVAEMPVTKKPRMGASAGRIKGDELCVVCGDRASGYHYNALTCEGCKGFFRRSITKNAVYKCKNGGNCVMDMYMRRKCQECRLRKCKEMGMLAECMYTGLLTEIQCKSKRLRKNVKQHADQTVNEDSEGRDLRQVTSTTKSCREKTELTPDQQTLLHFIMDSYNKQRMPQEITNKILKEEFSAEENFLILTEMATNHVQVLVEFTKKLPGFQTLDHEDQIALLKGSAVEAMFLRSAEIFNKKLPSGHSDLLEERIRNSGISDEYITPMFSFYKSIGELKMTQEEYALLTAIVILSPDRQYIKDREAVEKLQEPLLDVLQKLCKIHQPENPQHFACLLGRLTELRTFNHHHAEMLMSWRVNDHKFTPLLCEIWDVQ
Method in brief: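 Cells carrying a UAS-driven beta-lactamase reporter (GeneBLAzer FXR-UAS-bla HEK 293T) were plated and rested 5 h at 37 °C. Compounds in DMSO were added alongside chenodeoxycholic acid agonist at 50 uM final and left 16 h at 37 °C before FRET substrate readout.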

[15] = target: Bile acid receptor (Homo sapiens) (UniProt Q96RI1); assay: qHTS assay to identify small molecule agonists of the farnesoid-X-receptor (FXR) signaling pathway (AID 743220; active means well fitted activation curve with a large enough effect in the signal ratio in the repeat runs, not every such curve was filed as active; inconclusive means weak or mixed curves, or effect the other way; the % refers to the signal ratio); conditions: HEK293T FXR-UAS-bla, beta-lactamase FRET ratio, 16 h; activation: at 62.6 µM (top of the series) unless noted
Method in brief: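 FXR-UAS-bla HEK 293T cells carrying a UAS-driven beta-lactamase reporter were plated for 5 h at 37C/5% CO2, then exposed to DMSO-dissolved Tox21 10K compounds for 16 h at 37C. A LiveBLAzer B/G FRET substrate was loaded for 2 h at room temperature before fluorescence reading.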

[16] = qHTS assay to identify small molecule antagonists of the farnesoid-X-receptor (FXR) signaling pathway - cell viability counter screen (AID 743221; active means well fitted cell-killing curve with a large enough effect in the repeat runs, not every such curve was filed as active; inconclusive means weak or mixed curves, or effect the other way; inactive means no such curve, though single readings can be large or run the other way; further: nearly all actives have a fitted effect of over 50% in size); conditions: FXR-bla HEK293T viability, CellTiter-Glo luminescence, 16 h; activity change, negative = cytotoxicity: at 62.6 µM (top of the series)
Method in brief: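 Multiplexed counter screen: viability of FXR-bla HEK 293T cells under agonist stimulation by chenodeoxycholic acid (50 uM, final) and test compound for 16 h at 37 C, measured by CellTiter-Glo luminescence in the reporter wells.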

[17] = ratio activity, negative = inhibition: at 62.6 µM (top of the series) unless noted
[18] = activation: at 73.3 µM (top of the series) unless noted
Potency means the concentration at half of the fitted maximal effect; tags describe the fitted curve by direction and shape or compound fluorescence and quenching.

With `Cc1ccc(O)c(C(C)(C)C)c1` the Potency [1, 17] was inconclusive: 61.5 µM [cytotoxic], the Potency [2] was inconclusive: 38.8 µM [cytotoxic, partial curve, poor fit] and the Potency [3, 18] was inconclusive: 24.3 µM [falling, partial curve]. For the same molecule, the activation [3, 18] was inconclusive: 7.51%, the Potency [4] was inconclusive: 24.5 µM [falling, partial curve] and the Potency [5] was inconclusive: 54.8 µM [single point]. For the same molecule, the Potency [6] was active: 27.5 µM and inconclusive: 61.7 µM [cytotoxic, single point], the Potency [7] was inconclusive: 54.8 µM [cytotoxic, single point] and the Potency [8] was active: 24.5 µM. The Potency [9] was inconclusive: 54.8 µM [single point], the Potency [10] was active: 13.8 µM and the activity change, negative = inhibition [10] was inconclusive: -37.6%. The Potency [11] was active: 19.5 µM and inconclusive: 49 µM [cytotoxic, single point], the Potency [12] was active: 21.8 µM and the viability change, negative = cytotoxic [12] was inconclusive: -31.1% [cytotoxic].

In the case of `CC(C)c1ccc(S(=O)(=O)O)cc1`, the Potency [1, 17] is reported as “inactive”, the Potency [2] is reported as “inactive” and the activation [3, 18] is reported as inconclusive: 11.9%. The activation ([3]; at 73.3 µM (top of the series)) was inactive: 8.39% and the Potency [8] was “inactive”.

In the case of `COc1ccc2[nH]cc(CCNC(C)=O)c2c1`, the ratio activity, negative = inhibition ([1]; at 62.6 µM (top of the series)) is reported as inconclusive: 8%, the ratio activity, negative = inhibition ([1]; at 81.1 µM (top of the series)) is reported as inconclusive: 3.42% and the Potency [8] is reported as inconclusive: 10.6 µM [rising, single point]. The Potency [12] was inconclusive: 55.8 µM [rising, single point].

With `O=C1Cc2cc(CCN3CCN(c4nsc5ccccc45)CC3)c(Cl)cc2N1` the ratio activity, negative = inhibition [1, 17] was inconclusive: 1.93%, the Potency [2] was inconclusive: 33.5 µM [cytotoxic, single point] and the activation [3, 18] was inconclusive: 0.916%. The Potency [13] was inconclusive: 33.5 µM [cytotoxic, partial curve, poor fit], the Potency [4] was inconclusive: 33.5 µM and the Potency [5] was inconclusive: 11.9 µM. For the same molecule, the Potency [6] was active: 26.6 µM, the Potency [7] was inconclusive: 33.5 µM [inhibitor, single point] and the Potency [14] was inconclusive: 33.5 µM [inhibitor]. The Potency [8] was inconclusive: 13.3 µM [cytotoxic, full curve, poor fit], the Potency [15] was inconclusive: 13.3 µM [rising, single point] and the Potency [16] was inconclusive: 33.5 µM [falling, single point]. For the same molecule, the activation [9] was inconclusive: -8.9%, the activity change, negative = inhibition [10] was inconclusive: -61.1% and the Potency [11] was inconclusive: 33.5 µM [cytotoxic, single point].
